Among the data in publication PMC5460031 are binding values, retold here.

Protein sequences, listed by entry. Tags and fused reporters are not part of them. Lines headed by an entry give the natural chain unless they say otherwise; changes in a name come on top. Residues count along the entry.
UniProt O43734: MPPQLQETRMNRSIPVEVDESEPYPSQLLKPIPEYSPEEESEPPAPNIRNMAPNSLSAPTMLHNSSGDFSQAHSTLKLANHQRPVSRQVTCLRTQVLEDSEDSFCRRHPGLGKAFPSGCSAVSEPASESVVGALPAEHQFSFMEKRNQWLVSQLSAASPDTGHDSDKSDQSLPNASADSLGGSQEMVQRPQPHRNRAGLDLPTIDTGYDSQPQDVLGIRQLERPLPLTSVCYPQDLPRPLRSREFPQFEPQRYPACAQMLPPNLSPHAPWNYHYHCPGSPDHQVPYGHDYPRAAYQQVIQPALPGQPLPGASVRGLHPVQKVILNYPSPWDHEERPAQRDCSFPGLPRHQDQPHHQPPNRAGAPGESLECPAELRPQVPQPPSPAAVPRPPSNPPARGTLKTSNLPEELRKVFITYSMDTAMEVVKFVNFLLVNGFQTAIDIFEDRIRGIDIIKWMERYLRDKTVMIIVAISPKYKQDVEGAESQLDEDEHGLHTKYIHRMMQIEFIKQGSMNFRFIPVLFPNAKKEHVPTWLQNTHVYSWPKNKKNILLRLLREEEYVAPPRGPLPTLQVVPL
UniProt P46531: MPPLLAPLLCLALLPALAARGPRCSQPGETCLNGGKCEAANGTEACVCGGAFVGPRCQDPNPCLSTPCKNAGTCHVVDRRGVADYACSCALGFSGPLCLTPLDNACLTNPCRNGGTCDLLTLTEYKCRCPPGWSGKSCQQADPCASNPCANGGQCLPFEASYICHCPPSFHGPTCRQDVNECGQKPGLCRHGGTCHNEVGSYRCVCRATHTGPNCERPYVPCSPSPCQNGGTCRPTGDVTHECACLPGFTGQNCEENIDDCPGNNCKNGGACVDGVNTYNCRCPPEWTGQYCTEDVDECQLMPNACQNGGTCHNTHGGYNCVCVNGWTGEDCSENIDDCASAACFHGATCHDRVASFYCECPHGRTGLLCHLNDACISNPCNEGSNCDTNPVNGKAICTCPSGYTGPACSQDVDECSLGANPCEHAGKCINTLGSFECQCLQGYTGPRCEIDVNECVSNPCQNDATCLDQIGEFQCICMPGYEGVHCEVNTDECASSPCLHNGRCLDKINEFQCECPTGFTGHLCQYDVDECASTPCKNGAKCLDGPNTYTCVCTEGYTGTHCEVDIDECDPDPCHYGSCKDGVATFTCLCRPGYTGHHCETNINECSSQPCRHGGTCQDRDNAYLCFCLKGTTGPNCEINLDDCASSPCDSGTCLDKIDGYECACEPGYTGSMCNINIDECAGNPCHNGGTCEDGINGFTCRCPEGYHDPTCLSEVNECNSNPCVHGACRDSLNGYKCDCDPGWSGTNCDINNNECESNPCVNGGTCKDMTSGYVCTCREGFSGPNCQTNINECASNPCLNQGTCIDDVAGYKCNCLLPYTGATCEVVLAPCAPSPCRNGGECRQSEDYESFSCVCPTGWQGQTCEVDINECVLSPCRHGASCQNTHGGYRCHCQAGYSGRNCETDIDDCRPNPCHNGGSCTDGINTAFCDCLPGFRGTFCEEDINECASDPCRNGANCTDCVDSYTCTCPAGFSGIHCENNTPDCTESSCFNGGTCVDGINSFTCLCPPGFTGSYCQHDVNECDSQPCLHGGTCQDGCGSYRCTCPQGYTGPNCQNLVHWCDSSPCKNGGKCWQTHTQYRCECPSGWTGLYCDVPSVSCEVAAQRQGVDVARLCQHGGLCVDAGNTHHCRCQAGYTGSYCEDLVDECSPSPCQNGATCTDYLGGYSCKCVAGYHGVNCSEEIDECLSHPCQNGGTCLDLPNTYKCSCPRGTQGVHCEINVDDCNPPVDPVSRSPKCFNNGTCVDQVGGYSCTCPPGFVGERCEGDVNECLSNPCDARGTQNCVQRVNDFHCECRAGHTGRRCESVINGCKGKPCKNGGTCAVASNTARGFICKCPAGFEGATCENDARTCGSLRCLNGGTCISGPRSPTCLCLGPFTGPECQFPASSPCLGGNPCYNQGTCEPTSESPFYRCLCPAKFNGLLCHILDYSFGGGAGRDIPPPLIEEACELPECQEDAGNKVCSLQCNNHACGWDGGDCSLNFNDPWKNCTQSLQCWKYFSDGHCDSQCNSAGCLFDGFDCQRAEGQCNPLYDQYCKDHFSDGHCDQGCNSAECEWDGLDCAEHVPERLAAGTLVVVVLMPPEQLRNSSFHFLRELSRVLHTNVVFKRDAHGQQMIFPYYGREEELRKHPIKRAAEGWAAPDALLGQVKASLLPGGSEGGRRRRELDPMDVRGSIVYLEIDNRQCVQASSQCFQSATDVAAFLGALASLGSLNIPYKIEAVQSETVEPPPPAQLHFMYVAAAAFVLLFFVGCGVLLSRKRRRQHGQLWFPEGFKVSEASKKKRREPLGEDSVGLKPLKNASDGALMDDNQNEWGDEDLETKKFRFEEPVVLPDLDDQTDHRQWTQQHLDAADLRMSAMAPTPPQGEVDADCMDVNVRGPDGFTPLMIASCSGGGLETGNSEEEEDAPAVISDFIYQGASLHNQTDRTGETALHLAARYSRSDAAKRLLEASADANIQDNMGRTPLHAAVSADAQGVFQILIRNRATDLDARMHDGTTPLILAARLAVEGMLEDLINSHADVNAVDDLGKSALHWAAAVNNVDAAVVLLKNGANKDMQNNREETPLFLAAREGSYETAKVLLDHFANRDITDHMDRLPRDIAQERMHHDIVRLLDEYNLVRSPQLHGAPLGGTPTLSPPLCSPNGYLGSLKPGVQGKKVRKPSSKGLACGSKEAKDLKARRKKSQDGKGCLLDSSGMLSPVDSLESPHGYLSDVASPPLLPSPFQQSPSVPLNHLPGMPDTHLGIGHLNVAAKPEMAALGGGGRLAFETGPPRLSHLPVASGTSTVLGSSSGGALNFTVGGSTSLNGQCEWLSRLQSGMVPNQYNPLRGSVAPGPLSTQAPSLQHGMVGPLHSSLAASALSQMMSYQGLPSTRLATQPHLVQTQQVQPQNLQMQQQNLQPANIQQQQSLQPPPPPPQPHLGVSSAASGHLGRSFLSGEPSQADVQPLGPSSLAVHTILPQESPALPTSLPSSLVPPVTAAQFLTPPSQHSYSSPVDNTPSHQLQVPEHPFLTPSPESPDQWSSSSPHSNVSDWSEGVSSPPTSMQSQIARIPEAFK
FLAG-NOTCH1: residues 19-2555 of P46531
UniProt Q06330: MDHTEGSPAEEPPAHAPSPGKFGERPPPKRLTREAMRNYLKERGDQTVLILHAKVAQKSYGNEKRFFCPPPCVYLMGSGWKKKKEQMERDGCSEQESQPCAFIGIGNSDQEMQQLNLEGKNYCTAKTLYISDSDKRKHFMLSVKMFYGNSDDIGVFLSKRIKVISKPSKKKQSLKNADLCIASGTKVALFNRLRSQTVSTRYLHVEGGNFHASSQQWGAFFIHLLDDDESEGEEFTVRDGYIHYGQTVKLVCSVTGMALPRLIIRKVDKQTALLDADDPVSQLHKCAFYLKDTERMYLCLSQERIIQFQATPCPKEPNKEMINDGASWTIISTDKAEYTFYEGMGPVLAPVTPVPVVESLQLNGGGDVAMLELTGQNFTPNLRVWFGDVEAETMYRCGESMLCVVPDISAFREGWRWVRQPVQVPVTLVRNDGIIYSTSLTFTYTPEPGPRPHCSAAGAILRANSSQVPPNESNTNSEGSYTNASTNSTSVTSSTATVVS
UniProt Q01705, residues 19-2531: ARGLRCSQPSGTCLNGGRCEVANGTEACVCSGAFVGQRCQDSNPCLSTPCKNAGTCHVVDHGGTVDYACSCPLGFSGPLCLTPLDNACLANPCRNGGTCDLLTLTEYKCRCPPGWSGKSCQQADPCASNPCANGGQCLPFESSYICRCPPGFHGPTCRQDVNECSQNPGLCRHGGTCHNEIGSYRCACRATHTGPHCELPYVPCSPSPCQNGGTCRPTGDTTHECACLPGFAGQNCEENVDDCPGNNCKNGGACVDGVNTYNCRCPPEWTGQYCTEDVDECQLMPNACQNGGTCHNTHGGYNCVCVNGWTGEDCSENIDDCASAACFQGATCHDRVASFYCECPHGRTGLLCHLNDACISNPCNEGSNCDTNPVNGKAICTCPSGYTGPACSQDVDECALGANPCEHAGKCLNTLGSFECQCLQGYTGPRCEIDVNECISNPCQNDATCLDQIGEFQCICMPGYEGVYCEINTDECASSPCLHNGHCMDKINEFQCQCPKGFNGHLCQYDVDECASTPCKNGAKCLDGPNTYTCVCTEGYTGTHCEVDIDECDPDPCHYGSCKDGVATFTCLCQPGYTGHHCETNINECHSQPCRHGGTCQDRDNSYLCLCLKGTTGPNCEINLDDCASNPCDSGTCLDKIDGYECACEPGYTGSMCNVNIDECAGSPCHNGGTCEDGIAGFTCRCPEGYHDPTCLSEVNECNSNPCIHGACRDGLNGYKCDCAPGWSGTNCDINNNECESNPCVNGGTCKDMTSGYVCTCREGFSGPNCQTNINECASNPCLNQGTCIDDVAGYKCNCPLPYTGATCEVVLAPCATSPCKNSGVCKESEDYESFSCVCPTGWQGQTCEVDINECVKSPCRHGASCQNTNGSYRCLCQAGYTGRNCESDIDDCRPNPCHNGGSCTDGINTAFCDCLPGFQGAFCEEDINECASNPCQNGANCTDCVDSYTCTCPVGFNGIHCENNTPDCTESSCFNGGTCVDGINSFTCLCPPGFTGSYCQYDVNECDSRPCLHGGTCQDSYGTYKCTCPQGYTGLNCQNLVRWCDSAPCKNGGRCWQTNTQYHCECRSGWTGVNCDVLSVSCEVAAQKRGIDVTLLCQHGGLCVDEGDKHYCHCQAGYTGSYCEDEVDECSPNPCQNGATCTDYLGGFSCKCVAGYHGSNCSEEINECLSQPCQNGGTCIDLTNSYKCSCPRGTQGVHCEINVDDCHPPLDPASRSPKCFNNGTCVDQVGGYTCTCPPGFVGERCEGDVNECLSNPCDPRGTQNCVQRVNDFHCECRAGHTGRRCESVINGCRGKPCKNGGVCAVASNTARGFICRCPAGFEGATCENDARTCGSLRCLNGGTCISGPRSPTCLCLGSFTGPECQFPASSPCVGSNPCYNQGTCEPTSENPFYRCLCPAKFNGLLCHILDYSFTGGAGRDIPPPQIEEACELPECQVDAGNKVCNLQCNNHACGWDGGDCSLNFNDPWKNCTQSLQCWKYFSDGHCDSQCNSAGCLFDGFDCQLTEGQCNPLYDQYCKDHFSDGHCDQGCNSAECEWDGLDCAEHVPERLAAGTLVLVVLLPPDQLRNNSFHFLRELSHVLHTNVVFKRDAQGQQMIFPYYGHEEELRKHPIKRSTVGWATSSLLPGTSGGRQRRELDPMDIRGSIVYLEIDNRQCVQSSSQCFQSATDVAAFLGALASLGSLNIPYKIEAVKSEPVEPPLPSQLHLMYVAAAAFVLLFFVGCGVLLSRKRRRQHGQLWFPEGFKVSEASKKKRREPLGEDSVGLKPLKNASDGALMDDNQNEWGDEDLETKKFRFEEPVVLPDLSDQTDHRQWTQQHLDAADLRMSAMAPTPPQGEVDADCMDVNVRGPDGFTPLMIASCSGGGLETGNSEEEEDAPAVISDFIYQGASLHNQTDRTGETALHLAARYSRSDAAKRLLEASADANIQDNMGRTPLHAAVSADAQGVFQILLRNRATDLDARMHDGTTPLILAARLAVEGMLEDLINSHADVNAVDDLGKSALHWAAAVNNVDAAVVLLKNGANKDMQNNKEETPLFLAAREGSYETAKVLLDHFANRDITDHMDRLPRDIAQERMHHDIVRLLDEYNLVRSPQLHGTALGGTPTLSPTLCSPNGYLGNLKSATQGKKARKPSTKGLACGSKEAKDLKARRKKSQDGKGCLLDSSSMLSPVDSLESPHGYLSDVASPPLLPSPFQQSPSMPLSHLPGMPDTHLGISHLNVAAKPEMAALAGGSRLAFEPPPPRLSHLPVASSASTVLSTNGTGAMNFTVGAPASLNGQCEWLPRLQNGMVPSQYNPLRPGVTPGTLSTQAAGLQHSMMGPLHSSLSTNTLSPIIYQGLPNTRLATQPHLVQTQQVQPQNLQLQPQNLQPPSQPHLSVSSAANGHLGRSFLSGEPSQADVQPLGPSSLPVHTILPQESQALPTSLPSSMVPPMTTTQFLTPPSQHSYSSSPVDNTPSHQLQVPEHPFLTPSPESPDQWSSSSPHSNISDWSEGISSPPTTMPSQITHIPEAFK

No constants are given. Whether binding was seen depends on the method and setting. Binding seen in cells or lysates may run through a third protein. Some entries that bind do so weakly or less than the wild type. For part of these data: Sequences can lack the tags named with a protein.

In experiment [1] the target is T1, Act1 (endogenous, mouse OPCs) (mouse (endogenous in OPCs)) (UniProt Q8N7N6).
T1 sequence: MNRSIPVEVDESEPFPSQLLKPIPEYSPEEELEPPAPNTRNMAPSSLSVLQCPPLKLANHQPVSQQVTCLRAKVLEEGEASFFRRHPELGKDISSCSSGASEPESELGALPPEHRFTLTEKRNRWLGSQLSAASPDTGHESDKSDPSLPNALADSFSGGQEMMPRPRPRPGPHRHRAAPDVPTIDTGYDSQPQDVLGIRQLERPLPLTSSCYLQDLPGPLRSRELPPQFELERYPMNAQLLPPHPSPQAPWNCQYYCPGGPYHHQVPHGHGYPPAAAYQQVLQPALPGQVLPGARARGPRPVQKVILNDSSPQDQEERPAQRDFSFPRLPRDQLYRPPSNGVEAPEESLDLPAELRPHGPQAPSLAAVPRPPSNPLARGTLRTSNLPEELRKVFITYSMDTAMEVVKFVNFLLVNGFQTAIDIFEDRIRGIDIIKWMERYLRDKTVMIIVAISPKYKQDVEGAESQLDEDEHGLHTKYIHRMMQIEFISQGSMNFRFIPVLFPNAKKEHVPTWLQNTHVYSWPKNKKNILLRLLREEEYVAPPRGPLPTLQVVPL
Nature of the experiment: co-IP; wild-type mouse OPCs co-cultured with Act1 KO astrocytes, stimulated with IL-17 (50 ng ml^−1) for the indicated times; lysates immunoprecipitated with anti-Act1 antibody; immunoblot.

Experiment [2] deals with T2, V5-IL-17RA (human) (UniProt Q96F46).
T2 sequence: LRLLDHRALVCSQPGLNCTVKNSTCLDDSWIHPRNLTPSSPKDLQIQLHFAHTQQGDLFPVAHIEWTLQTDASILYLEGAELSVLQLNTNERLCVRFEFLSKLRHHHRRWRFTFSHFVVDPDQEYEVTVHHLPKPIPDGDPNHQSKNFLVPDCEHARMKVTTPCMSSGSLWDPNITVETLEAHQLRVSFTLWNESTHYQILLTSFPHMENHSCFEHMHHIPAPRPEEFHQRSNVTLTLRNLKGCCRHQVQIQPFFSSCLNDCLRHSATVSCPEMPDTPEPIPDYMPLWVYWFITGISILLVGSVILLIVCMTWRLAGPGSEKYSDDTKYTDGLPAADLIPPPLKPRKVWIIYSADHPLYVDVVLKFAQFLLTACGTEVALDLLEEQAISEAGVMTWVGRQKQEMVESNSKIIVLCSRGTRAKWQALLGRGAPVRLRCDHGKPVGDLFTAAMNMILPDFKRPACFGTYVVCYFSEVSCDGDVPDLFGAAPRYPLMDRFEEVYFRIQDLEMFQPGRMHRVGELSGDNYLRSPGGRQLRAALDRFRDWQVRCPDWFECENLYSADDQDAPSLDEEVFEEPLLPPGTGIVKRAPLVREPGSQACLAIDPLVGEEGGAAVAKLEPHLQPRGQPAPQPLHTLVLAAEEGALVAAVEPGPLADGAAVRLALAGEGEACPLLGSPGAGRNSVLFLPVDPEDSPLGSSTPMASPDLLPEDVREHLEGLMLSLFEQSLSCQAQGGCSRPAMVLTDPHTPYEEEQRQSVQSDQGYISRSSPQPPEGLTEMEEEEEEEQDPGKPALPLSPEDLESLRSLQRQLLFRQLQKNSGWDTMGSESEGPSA
In words: co-IP; HEK293 cells transfected with tagged constructs; lysis buffer with 0.5% Triton X-100, 20 mM HEPES pH 7.4, 150 mM NaCl; 1 μg antibody and A-Sepharose beads at 4 °C overnight; immunoblot.

The target of experiment [3] is HA–Act1 (human) (UniProt O43734). The description is as above.
For experiment [4], the target named is T3, FLAG-tagged IL-17RA (human) (UniProt Q96F46).
T3 sequence: T2 sequence
The description is as above.

Experiment [5] concerns the target T4, FLAG-tagged IL-17RA Δ33–320 (human) (UniProt Q96F46).
T4 sequence: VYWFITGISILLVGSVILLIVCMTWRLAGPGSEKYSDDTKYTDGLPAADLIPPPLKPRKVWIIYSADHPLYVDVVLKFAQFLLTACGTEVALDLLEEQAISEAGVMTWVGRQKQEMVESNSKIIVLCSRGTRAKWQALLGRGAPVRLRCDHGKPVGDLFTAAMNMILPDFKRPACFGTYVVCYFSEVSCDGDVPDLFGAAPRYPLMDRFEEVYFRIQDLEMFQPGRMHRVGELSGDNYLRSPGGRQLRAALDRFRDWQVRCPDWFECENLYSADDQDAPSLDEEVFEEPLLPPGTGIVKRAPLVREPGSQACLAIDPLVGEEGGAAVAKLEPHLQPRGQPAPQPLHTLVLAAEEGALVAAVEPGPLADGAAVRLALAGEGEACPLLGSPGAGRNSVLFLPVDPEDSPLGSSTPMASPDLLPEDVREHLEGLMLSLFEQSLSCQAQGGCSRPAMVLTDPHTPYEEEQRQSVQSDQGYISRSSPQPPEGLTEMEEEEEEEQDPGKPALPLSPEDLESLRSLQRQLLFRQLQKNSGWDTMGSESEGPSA
The experiment is described as above.

Experiment [6] concerns the target FLAG-NOTCH1 (human) (UniProt P46531). The description is as above.
For experiment [7], the target named is RBP-J (endogenous, HEK293 cells) (human (endogenous in HEK293)) (UniProt Q06330). Described as above.
In experiment [8] the target is FLAG-NOTCH1 (human) (UniProt P46531). In words: proximity ligation; in situ PLA (Duolink In Situ Red) in transfected, fixed HeLa cells; rabbit anti-FLAG with mouse anti-HA or mouse anti-V5.

As for “NOTCH1 (endogenous, mouse OPCs) (from UniProt Q01705 19-2531) (receptor)”, in experiment [1], the binding entry is on record as “binds”.

Take “GFP–NECD1 (from UniProt P46531 19-1735) (domain or fragment)”: the binding result was “binds” in experiment [2], “no binding” in experiment [3], “binds” in experiment [4] and “no binding” in experiment [5].

In the case of HA–Act1 (from UniProt O43734 1-574), the binding entry in experiment [6], in experiment [7] and in experiment [8] was “binds” each time.

As to “RBP-J (endogenous, mouse OPC co-culture) (from UniProt P31266 1-526)”, in experiment [1], the binding entry was “binds”.
